Test results: the RNAGym collection of RNA variant scans (doi:10.7554/elife.90254)
Read counts are not given, so values of variants with three or more changes are uncertain.

B1: LINE1-mini (parent)
chain: GGCAGAGCUCAACACAGCGUGGCAAAGUGGCUGUGGCUAGACUGCC

Variants of: B1
Assay: self-cleavage, relative activity (ratio to wild type); higher = more cleavage; in vitro, sequencing; the parent is a self-cleaving ribozyme
With G5C A6U C8U the self-cleavage was 0.06.
Variant C13G U28A G36A has a self-cleavage of 0.11.
With C8A C10G A11U A12C C13U G36U the self-cleavage was 0.04.
Work on C15U C42G C45A yielded a self-cleavage of 0.
Variant C15U C23U U28A G30C has a self-cleavage of 0.59.
A16G A24U U28A G36A showed a self-cleavage of 0.17.
In the case of A4U G5A A6G A24C, the self-cleavage is reported as 0.04.
Work on C18G G29C G33U A39U yielded a self-cleavage of 0.02.
For G5C G35U C37G C46U, the self-cleavage was 0.02.
Variant C31U G33U G35U G40C G44U C46G has a self-cleavage of 0.
Variant U9C A11U A12U C37A has a self-cleavage of 0.01.
C18A C23U C45A gave a self-cleavage of 0.05.
In the case of G17U G22U C23A U32A C42A, the self-cleavage is reported as 0.03.
For C15G A16U U20C G30A G36U, the self-cleavage was 0.
G7U A16C C37A showed a self-cleavage of 0.08.
In the case of C8U U9G A25G G30A U38G, the self-cleavage is reported as 0.78.
A6G G19A G21A G33C C42U showed a self-cleavage of 0.02.
Variant G27C U43G C46U has a self-cleavage of 0.01.
Variant A14C U28C G33C A39U has a self-cleavage of 0.
G5A A25G C45A gave a self-cleavage of 0.07.
C10U U32C G35U G40U showed a self-cleavage of 0.01.
Variant A4G G22U U32G G44U has a self-cleavage of 0.3.
C23G U34G C45G showed a self-cleavage of 0.08.
Work on G5U G33C C37U yielded a self-cleavage of 0.02.
Work on U20C G21U C45U yielded a self-cleavage of 0.26.
Variant C23A A26C G33C has a self-cleavage of 0.03.
Variant G1A C31A C42G has a self-cleavage of 0.03.
C15A A16G G22A U28C G29C C46G showed a self-cleavage of 0.02.
For A25C C42A G44U, the self-cleavage was 0.26.
With G2A U20C C42U the self-cleavage was 0.11.
Work on C18U G22C A24U yielded a self-cleavage of 0.79.
With G1A C15G G27U G33U the self-cleavage was 0.04.
A4C C10A G27C showed a self-cleavage of 0.
In the case of G22U C42A C45A, the self-cleavage is reported as 0.02.
C8G C13U G29A gave a self-cleavage of 0.12.
G2A A16G G17C G21A G30C G40U gave a self-cleavage of 0.08.
Variant C3A U20A C31A U38A has a self-cleavage of 0.17.
In the case of A11G A24U G30U C31U U32G C42U, the self-cleavage is reported as 0.01.
Work on G5C G19A G33A G40U U43C yielded a self-cleavage of 0.02.
U9G G21U U34C showed a self-cleavage of 0.09.
C10G G27U C42U gave a self-cleavage of 0.01.
C18A G19C C23G gave a self-cleavage of 0.77.
A24G C31U U43A gave a self-cleavage of 0.07.
A11C G27C G36C G40A gave a self-cleavage of 0.02.
Variant G5C G30A C45A has a self-cleavage of 0.04.
G1C G29U A41G gave a self-cleavage of 0.
In the case of G21C G29C G44C, the self-cleavage is reported as 0.14.
With C10U G30A U43A the self-cleavage was 0.02.
A4C G22U U34G C37U gave a self-cleavage of 0.15.
With G2A G7A C8U A24G the self-cleavage was 0.86.
Variant A12C G22A U34C has a self-cleavage of 0.01.
C10G C18U A25U G27C showed a self-cleavage of 0.04.
For A4C A11G C13U C15U, the self-cleavage was 0.04.
C8G C15G G29C showed a self-cleavage of 0.16.
In the case of G5C G19C C23U, the self-cleavage is reported as 0.04.
With A12G G36U A41G C46U the self-cleavage was 0.09.
With G2A U20C G33A G40U the self-cleavage was 0.15.
G7C C8A G30C showed a self-cleavage of 0.27.
In the case of G19C G33U G40C, the self-cleavage is reported as 0.03.
For A4G A11G C46G, the self-cleavage was 0.03.
For C13A G27U A39G, the self-cleavage was 0.24.
C8U G17A U28A G36A gave a self-cleavage of 0.16.
G1U A6C G44A showed a self-cleavage of 0.09.
Work on A4G U20A A25U A39C C46G yielded a self-cleavage of 0.05.
In the case of G7C C10G G19U C45U, the self-cleavage is reported as 0.01.
For G7U A11U U34A, the self-cleavage was 0.13.
Variant G30C G33A U34C has a self-cleavage of 0.06.
A12C A14C G30A gave a self-cleavage of 0.04.
G1A A11U C18G G22C C42U showed a self-cleavage of 0.01.
In the case of C10A C13U G17A, the self-cleavage is reported as 0.03.
In the case of G1U G36C U38G, the self-cleavage is reported as 0.
G5C C8G G33C G35U G36C gave a self-cleavage of 0.
With G19C G36U C46A the self-cleavage was 0.11.
Variant U20G U38A G44U has a self-cleavage of 0.08.
In the case of G5C C8G G44U, the self-cleavage is reported as 0.21.
G5C U9A C13A A24G showed a self-cleavage of 0.07.
For U32A U34G U38A, the self-cleavage was 0.16.
Work on G1C C23U C42U yielded a self-cleavage of 0.01.
C10G G27A U43C gave a self-cleavage of 0.01.
Variant A25U C31A G36C has a self-cleavage of 0.04.
G27A G30U U38G A39G C46A gave a self-cleavage of 0.01.
In the case of C10U A11G G22A, the self-cleavage is reported as 0.02.
A16C G27C U28A G30C G35C showed a self-cleavage of 0.02.
C10A C13A G17U U32G C45G gave a self-cleavage of 0.
Variant G2C G5A A11C U20A A39C has a self-cleavage of 0.
For U9G C10U G30C, the self-cleavage was 0.04.
C3G G7C C8U U9C C23A gave a self-cleavage of 0.48.
Work on G5C C10A C13U C18U yielded a self-cleavage of 0.03.
For C3G G21U C46A, the self-cleavage was 0.11.
A11C G35A U38C gave a self-cleavage of 0.02.
C3A C23U A41G showed a self-cleavage of 0.37.
C3G A14U A25C G33U showed a self-cleavage of 0.03.
Work on A24U U28A G29C G30C A41C yielded a self-cleavage of 0.03.
With C3G G17A C37A A39G C45G the self-cleavage was 0.04.
G19A G30U G40C gave a self-cleavage of 0.12.
Work on G2A C10A G19U G30A U38G C42A yielded a self-cleavage of 0.02.
For C13A G33A G36A, the self-cleavage was 0.1.
Variant C8A U9G G40C C46A has a self-cleavage of 0.01.
With G2U C8G G33A the self-cleavage was 0.03.
Variant C3U A6U G7A C46U has a self-cleavage of 0.12.
A6C C31U U34C G40A gave a self-cleavage of 0.03.
For A12G G19C G22U G27A G29C, the self-cleavage was 0.
C3U C23A U34G G44A showed a self-cleavage of 0.21.
Variant G1A C3U G21A U28G G30U U32C G36C has a self-cleavage of 0.11.
Variant C8G A16U G19C A24C has a self-cleavage of 0.06.
U32A U38A C46U gave a self-cleavage of 0.07.
A14C G21C A25C G36U gave a self-cleavage of 0.07.
C10A G17U G33U C45U gave a self-cleavage of 0.04.
For C10A A14C G17U, the self-cleavage was 0.03.
G5U C8A G29U showed a self-cleavage of 0.12.
Work on G5A A6U A14C G17C C45G yielded a self-cleavage of 0.13.
For U28G U32A C45U, the self-cleavage was 0.22.
For C18G A24U G40C, the self-cleavage was 0.02.
G2A A4U A6C C15U G36C gave a self-cleavage of 0.1.
With C18G G27U G33A C37G the self-cleavage was 0.02.
In the case of G2U A6C U34A, the self-cleavage is reported as 0.01.
For G17C G19C U28C U34G, the self-cleavage was 0.15.
G5C C10A G30C C31A G33C gave a self-cleavage of 0.02.
With A26C U34G C45U the self-cleavage was 0.51.
In the case of C8U C23U U34C, the self-cleavage is reported as 0.15.
For C3U C18G G22C C45A, the self-cleavage was 0.06.
G2C A6G G21C U34C A41G gave a self-cleavage of 0.03.
Work on G19A G27C G44C yielded a self-cleavage of 0.69.
Work on A6U A14G G33C yielded a self-cleavage of 0.07.
C15G G29C U34A C46G showed a self-cleavage of 0.01.
In the case of G2A U9C G30A, the self-cleavage is reported as 0.02.
C15U A16U C31U G35A gave a self-cleavage of 0.01.
G2A C13A A14U gave a self-cleavage of 0.57.
For C8U G21U G35U, the self-cleavage was 0.38.
In the case of G2A A14G C18A, the self-cleavage is reported as 0.37.
Work on G1U C10U C15G G22C G27U A39C yielded a self-cleavage of 0.01.
For G7U C8A G30A, the self-cleavage was 0.3.
In the case of C13U G17C U38G, the self-cleavage is reported as 0.04.
With G17C U28G U34G the self-cleavage was 0.
U9C A11U G36C gave a self-cleavage of 0.04.
A4C C10G G33U showed a self-cleavage of 0.03.
G2U G5U A24C A26C showed a self-cleavage of 0.02.
G21A G22U C46U gave a self-cleavage of 1.38.
Work on G2U G22C C45G yielded a self-cleavage of 0.18.
Variant A12G G19A C31A U43A has a self-cleavage of 0.01.
In the case of A14C A24C U28G G30U G44A, the self-cleavage is reported as 0.03.
Variant C31U G35A G40U has a self-cleavage of 0.
In the case of C3A C10A C13A U20G C45G, the self-cleavage is reported as 0.04.
Work on G17U C18A G36C A41C yielded a self-cleavage of 0.02.
In the case of C3U C15G G19U A41G, the self-cleavage is reported as 0.18.
Variant C10U C13G C37U has a self-cleavage of 0.09.
C15G C23A A39G gave a self-cleavage of 0.01.
G21U U32A G36A A39U C45A gave a self-cleavage of 0.17.
G2C G5C C18U G35A G44A showed a self-cleavage of 0.03.
For C3A C8A A11C, the self-cleavage was 0.02.
With C18A G19A U32C the self-cleavage was 0.05.
With A6C A24C U28C G36C C46A the self-cleavage was 0.02.
For A14C C31U C46U, the self-cleavage was 0.
With C10G C15G G21C U32G the self-cleavage was 0.01.
G1U A6C C18A A26G G40U showed a self-cleavage of 0.02.
Work on G5C C18A A26G C46U yielded a self-cleavage of 0.03.
In the case of C23A A26G G40U, the self-cleavage is reported as 0.09.
Variant G17U G19A U34C C42G has a self-cleavage of 0.03.
Work on A14G C37A G40U yielded a self-cleavage of 0.08.
Variant A14U C31G C37A has a self-cleavage of 0.06.
Variant A4U G17A U32C has a self-cleavage of 0.12.
In the case of G1U G22C C23A U43C C45A, the self-cleavage is reported as 0.04.
For C8G G35A A41C, the self-cleavage was 0.01.
In the case of G1U C10A C13A A14U G27C, the self-cleavage is reported as 0.
With C13U A14C A24C the self-cleavage was 0.09.
Work on A4U A16G C37A yielded a self-cleavage of 0.17.
Work on C3U A11C C23G A41C yielded a self-cleavage of 0.01.
